What all share (assay): Primary Screen for Target Class Profiling of Small Molecule Inhibitors of Methyltransferases
Assay [1] concerns the target Glycine N-methyltransferase (Homo sapiens) (UniProt Q14749). The conditions noted are these: purified enzyme, MTase-Glo SAH luminescence; measured here: GNMT inhibition; at 40 µM; stronger effect = lower value. From the text: (§1) PI: Matthew D. Hall Ph.D. and Quinlin M. Hanson Ph.D.
(§2) National Center for Advancing Translational Sciences (NCATS)
(§3) National Institute of Health (NIH), Rockville, MD
(§4) Target class profiling (TCP) is a chemical biology approach amenable to investigating understudied biological targets. TCP is achieved by developing a generalizable assay platform and applying it to screen a curated set of compound libraries against representative members of a target class. Small molecule methyltransferases (SMMTase) are a subclass of methyltransferase that act on metabolites to modulate signaling pathways, metabolize xenobiotics, or balance the available methyl pool. We screened four curated libraries totaling 27,574 unique compounds against the SMMTases nicotinamide N-methyltransferase (NNMT), phenylethanolamine N-methyltransferase (PNMT), histamine N-methyltransferase (HNMT), glycine N-methyltransferase (GNMT), catechol O-methyltransferase (COMT), and guanidinoacetate N-methyltransferase (GAMT). The data generated by this TCP can be leveraged for informed tool molecule development. For example, in the associated publication we identified a chemotype of HNMT-selective inhibitors. Additionally, we identified a putative SMMTase-selective inhibitor with potential as a tool molecule for studying broader methyltransferase biology.
(§5) High-through put screening assays were developed at the National Center for Advancing Translational Science (NCATS) for the enzymes NNMT, PNMT, HNMT, GNMT, COMT, and GAMT. Enzymatic activity was measured as a function of SAM cofactor conversion using the MTase Glo kit (Promega) for all enzymes. All assays were performed in 1536-well format with substrates and SAM concentrations at KM values. Enzyme concentration and assay timing were optimized for 10-20% SAM conversion. Initial screening of 27,574 compounds was done as single-point assays using the highest compound concentration (40 uM). […] These compounds were replated in 11-point dose response and assayed against NNMT, PNMT, HNMT, GNMT, COMT, GAMT, and a counter-assay. The IC50 and efficacy (maximal response) values were determined for each dose-response curve. These values are also accounted for in the area under the curve (AUC) values.
(§6) PROTOCOL TABLE (as described by Inglese J, Shamu CE and Guy RK. 2007)
(§7) SEQUENCE No. (e.g., 1, 2, 3, etc.); […] (e.g., Cells, Incubation, Reagent, etc.); VALUE; DESCRIPTION.
(§8) 1; Reagent; 2 uL; SMMTase Enzyme (2x) in reaction buffer, columns 1- 48.
(§9) 2; Reagent; 1 uL; SAM (4x) in reaction buffer, columns 1-48.
(§10) 3; Controls; 23 nL; DMSO in column 4; sinefungin in DMSO (0 uM - 40 uM) in 7-point 1:2 dilution series (n = 2) in column 2.
(§11) 4; Compounds; 23 nL; Columns 5-48.
(§12) 5; Reagent; 1 uL; Substrate (4x) in reaction buffer, columns 2-48.
(§13) 6; Time; 20-30 min; Incubation.
(§14) 7; Reagent; 1 uL; MTase-Glo reagent (5X), columns 1-48.
(§15) 8; Time; 30 min; Incubation.
(§16) 9; Reagent; 5 uL; MTase-Glo Detection reagent, columns 1-48.
(§17) 10; Time; 30 min; Incubation, luminescence evolution.
(§18) 11; Detection; Luminescence; ViewLux uHTS Microplate Imager (PerkinElmer).
(§19) NOTES (numbers refer to Sequence numbers above)
(§20) 1, 2, 5. White Medium Binding Greiner 1536-well plates (Cat #789175-F, Greiner Bio-One, Monroe, NC); Reaction buffer: 50 mM Tris, pH 8.0, 3 mM MgCl2, 1 mM EDTA, 50 mM NaCl, 1 mM DTT, and 0.1 mg/mL BSA. Evaporation was prevented by covering assay plates with metal lids containing holes to allow gas diffusion.
(§21) 1. Six SMMTase were profiled: HNMT, GNMT, PNMT, COMT, NNMT, GAMT
(§22) 5. The corresponding substrate was used for each enzyme: HNMT - 5.3 uM Histamine; GNMT - >500 uM Glycine; PNMT - 16.2 uM Norephinephrine; COMT - 13.7 uM Norephinephrine; NNMT - 3.8 uM Nicotinamide; GAMT - 2.5 uM Guanidinoacetate.6, 8, 10. Room temperature
(§23) 6. Final reaction conditions: 10 nM COMT, 5 uM SAM, 15 uM norepinephrine, 50 mM Tris, pH 8.0, 3 mM MgCl2, 1 mM EDTA, 50 mM NaCl, 1 mM DTT, and 0.1 mg/mL BSA; refer to tables 2 and S1 for specific timing.
8. […]

Assay [2] concerns the target Guanidinoacetate N-methyltransferase (Homo sapiens) (UniProt Q14353). The conditions noted are these: purified enzyme, MTase-Glo SAH luminescence; measured here: GAMT inhibition; at 40 µM; stronger effect = lower value.
Description: as §1, §2, §3, §4, §5, §6, §7, §8, §9, §10, §11, §12, §13, §14, §15, §16, §17, §18, §19, §20, §21, §22, §23
8. […]

Assay [3] deals with Histamine N-methyltransferase (Homo sapiens) (UniProt P50135). The conditions noted are these: purified enzyme, MTase-Glo SAH luminescence; measured here: HNMT inhibition; at 40 µM; stronger effect = lower value.
Description: as §1, §2, §3, §4, §5, §6, §7, §8, §9, §10, §11, §12, §13, §14, §15, §16, §17, §18, §19, §20, §21, §22, §23
8. […]

Assay [4] addresses Nicotinamide N-methyltransferase (Homo sapiens) (UniProt P40261). The conditions noted are these: purified enzyme, MTase-Glo SAH luminescence; measured here: NNMT inhibition; at 40 µM; stronger effect = lower value.
Description: as §1, §2, §3, §4, §5, §6, §7, §8, §9, §10, §11, §12, §13, §14, §15, §16, §17, §18, §19, §20, §21, §22, §23
8. […]

For assay [5], the target named is Phenylethanolamine N-methyltransferase (Homo sapiens) (UniProt P11086). The conditions noted are these: purified enzyme, MTase-Glo SAH luminescence; measured here: PNMT inhibition; at 40 µM; stronger effect = lower value.
Description: as §1, §2, §3, §4, §5, §6, §7, §8, §9, §10, §11, §12, §13, §14, §15, §16, §17, §18, §19, §20, §21, §22, §23
8. […]

The list shows a part of the results. Shown are side measurements of this screen, not its main read-out; they come without a call.

The values below come from PubChem BioAssay AID1745853 (National Center for Advancing Translational Sciences (NCATS), 2022).
% is scaled to controls: 0 for no effect and ±100 for the full control effect.

As to `CC(C)(C)c1coc([C@@H]2COCCN2Cc2ccc(C(=O)O)cc2)n1`, the activity change, negative = inhibition in assay [1] is -6.25%; in assay [2], -11.4%; in assay [3], -2.08%; in assay [4] it was -8.63%; in assay [5] it was -5.07%.
With `CCCn1cc2c(nc(NC(=O)Nc3ccc(OC)cc3)n3nc(-c4ccco4)nc23)n1`, the activity change, negative = inhibition in assay [1] was 3.33%; in assay [2], 15.5%; in assay [3] it was 10.2%; in assay [4], -7.95%; in assay [5], 3.66%.
Consider `CCn1ccc(C(=O)N2CCc3nc(NC)nc(C(=O)N4CCCC4)c3C2)n1`, for which the activity change, negative = inhibition was -1.08% in assay [1]; 1.04% in assay [2]; 0.752% in assay [3]; -1.12% in assay [4]; 2.21% in assay [5].
The like results for `CCCCN(CCCC)CCCN1C(=O)c2cc3occc3n2CC1(C)C(=O)NC1CCCCCC1` (stereo not given) were, in that order, -1.81%, 2.4%, 0.486%, 8.17% and -2.65%.
As to `COCC(=O)NC/C=C/c1ccc2ncnc(Nc3ccc(Oc4ccc(C)nc4)c(C)c3)c2c1`, the activity change, negative = inhibition in assay [1] is -15.4%; in assay [2] it was 4.11%; in assay [3] it was -3.95%; in assay [4], -32.6%; in assay [5], -5.11%.
As to `CCCn1c(=O)c2ccc(C(=O)NC(C)C)cc2n2c(=O)n(CC(=O)Nc3ccccc3F)nc12`, the activity change, negative = inhibition was 2.86% in assay [1]; 0% in assay [2]; -0.622% in assay [3]; -1.75% in assay [4]; 3.82% in assay [5].
On to `O=C(NCCCN1CCOCC1)c1cnn2c(-c3ccccc3)cc(-c3ccccc3)nc12`, for which the activity change, negative = inhibition in assay [1] was -10.5%; in assay [2] it was -8.82%; in assay [3], -11.1%; in assay [4] it was -46.2%; in assay [5] it was -21%.
Taken in the same sequence, the figures for `CCCc1nc(C(=O)N(C)Cc2cnn(-c3ccccc3C)c2)cs1` were -4.35%, -2.25%, -0.851%, -11.9% and -3.44%.
For the compound `COC(=O)c1ncn2c1C(=O)N(c1ccc(C(C)C)cc1)C(C)(C(=O)NC1CCCC1)C2` (stereo not given), the activity change, negative = inhibition in assay [1] is 2.19%; in assay [2] it was 0%; in assay [3], -3.08%; in assay [4], 3.19%; in assay [5] it was -1.2%.
The like results for `COc1ccc(-c2noc([C@@H](C)NCc3ccc(F)cc3)c2C(=O)O)cc1` were, in that order, -6.2%, -3.92%, -2.1%, -10% and 8.15%.
Regarding `Cc1nc(CN(C)C(=O)c2coc(COc3ccc(F)cc3Cl)n2)cs1`, the activity change, negative = inhibition in assay [1] is -2.62%; in assay [2], -1.69%; in assay [3], -1.49%; in assay [4], -3.4%; in assay [5] it was -2.92%.
The like results for `COC(=O)C1Cc2c([nH]c3ccccc23)C(C)N1` (stereo not given) were, in that order, -9.13%, 1.35%, -3.18%, 3.57% and -4.96%.
Taken in the same sequence, the figures for `COC(=O)c1ccccc1NC(=O)c1ncn2c1C(=O)N(C1CC1)C(C)(C(=O)NCc1ccc(F)cc1)C2` (stereo not given) were -2.63%, 3.54%, -0.274%, -1.61% and 0.28%.
Taken in the same sequence, the figures for `N#Cc1ccc(C(=O)N2CCOC[C@H](Oc3ccc(C(F)(F)F)cc3)C2)cc1` were -9.81%, -5.09%, -5.96%, -14.1% and -7.49%.
